The text below walks through data of patent US20140154251A1, “ANTI C-MET ANTIBODY AND USES THEREOF” (Samsung Electronics Co., Ltd., priority 2011, published 2014).

For one series, the system named is U87MG brain cancer cells. Put plainly: U87MG brain cancer mouse xenograft model. Format: in vivo, BALB/C nude mice. The conditions noted are these: 0.2 mg/kg-10 mg/kg, every 10 days, 3 doses. The procedure: (§1) In order to identify anti-cancer effects of the 4 types of antibodies having improved affinities, as prepared in Example 5, a decrease in the size of tumor cells in a brain cancer or gastric cancer mouse xenograft model transplanted with U87MG brain cancer cells (Korean Cell Line Bank) or MKN45 gastric cancer cells (Japanese Cancer Research Bank, JCRB, Tokyo, Japan) was observed when the antibodies having improved affinities were administered thereto in vivo.
(§2) For MKN45 model (FIG. 6A), 5×10^6 MKN45 cells (100 uL) were administered via subcutaneous injection to 6 week-old male BALB/C nude mice (SLAC Laboratories, Shanghai, China). For U87MG model (FIG. 6B), 2.5×10^6 U87MG cells were administered. One wee after the tumor inoculation, the mice were randomized into Vehicle (PBS) or huAbF46-H4-A1 treatment groups at a various doses (0.2 mg/kg-10 mg/kg). Each group consisted of 15 mice. For MKN45 model, each treatment was given once a week via intravenous route, for total of 4 doses. For U87MG model, the treatment was given every 10 days for total of 3 doses. […]

Series [1] concerns MKN45 gastric cancer cells. Put plainly: In vitro cell proliferation analysis (CellTiter-Glo). It counts as cell-based, human. The conditions noted are these: 0.008 ug/ml, 72 hours. Here is the method: In order to identify anti-cancer effects of the 4 types of antibodies having improved affinities, as prepared in Example 5, in vitro cell proliferation analysis was performed using MKN45 gastric cancer cells on which c-Met is expressed (Japanese Cancer Research Bank, JCRB, Tokyo, Japan).
1×10^4 MKN45 cells suspended in 50 ul of 5% (w/v) FBS/DMEM culture medium were introduced to each well of a 96-well plate. Then, the cells were either not treated or were treated with 50 ul of the 4 types of antibodies at a concentration of 0.008, 0.04, 0.2, or 1 ug/ml. After incubating for 72 hours, the number of cells was quantified by using a CellTiter-Glo Luminescent Cell Viability Assay Kit (Promega, G7570) with a leuminometer (PerkinElmer, 2104 Multilabel reader).
In order to identify anti-cancer effects of the three types of antibodies prepared in Example 11, in vitro cell proliferation analysis was performed using MKN45 gastric cancer cells having c-Met on the cell membrane (Japanese Cancer Research Bank, JCRB, Tokyo, Japan).
1×10^4 MKN45 cells suspended in 50 ul of 5% (w/v) FBS/DMEM culture medium were introduced to each well of a 96-well plate. Then, the cells were either not treated or were treated with 50 ul of the 3 types of antibodies at a concentration of 0.008, 0.04, 0.2, or 1 ug/ml. After incubating for 72 hours, the number of cells was quantified by using a CellTiter-Glo Luminescent Cell Viability Assay Kit (Promega, G7570) with a leuminometer (PerkinElmer, 2104 Multilabel reader).
(In ATP-based viability assays light output follows the ATP content of the culture.)

The target of series [2] is T1, c-Met (Homo sapiens, UniProt P08581). The experiment in a line: Degree of degradation of c-Met in MKN45 cells (total c-Met ELISA). Set-up: MKN45 gastric cancer cells on which c-Met is expressed; endogenous in cells; host or cells: MKN45 gastric cancer cells (JCRB). As to conditions: 5 ug/ml, 24 hours. It counts as cell-based. The procedure:
In order to identify anti-cancer effects of the 4 types of antibodies having improved affinities, as prepared in Example 5, the degree of degradation of c-Met bound to the antibodies was evaluated. A relative total amount of c-Met was obtained by measuring the change in the total amount of c-Met after the antibody binds to c-Met to degrade c-Met via internalization, and thus the efficacy of the antibody was evaluated.
MKN45 cells (2×10^5 cells/ml) and each of the antibodies (5 ug/ml) were simultaneously introduced to a 96-well plate and incubated for 24 hours. Then, lysis of the cells treated with antibodies was performed and the change in the total amount of c-Met was measured using a Human total HGF R/c-Met ELISA KIT (R&D systems, DYC358) and analyzed.
In order to identify anti-cancer effects of the 3 types of antibodies having improved affinities, as prepared in Example 11, the degree of degradation of c-Met bound to the antibody was evaluated. MKN45 cells (2×10^5 cells/ml) and each of the antibodies (5 ug/ml) were simultaneously introduced to a 96-well plate and incubated for 24 hours. Then, lysis of the cells treated with antibodies was performed and a change of the total amount of c-Met was measured using a Human total HGF R/c-Met ELISA KIT (R&D systems, DYC358) and analyzed.
For orientation: ELISA stands for enzyme-linked immunosorbent assay.

The test system of series [3] is MKN45 gastric cancer cells. Put plainly: MKN45 gastric cancer mouse xenograft model. It counts as in vivo, BALB/C nude mice. The conditions noted are these: 0.2 mg/kg-10 mg/kg, once a week intravenous, 4 doses. Here is the method: as §1, §2
Another series relates to Akt. Put plainly: Akt phosphorylation in Caki-1 cells (phospho-AKT1 Ser473 ELISA). It counts as cell-based. The conditions noted are these: 5 ug/ml, 30 minutes; for degree of Akt phosphorylation: serum free, 5D5 = 100%. The procedure:
To compare agonism of the 4 types of antibodies having improved affinities, as prepared in Example 5, Caki-1 cells (Korean Cell Line Bank) were used to confirm the degree of Akt phosphorylation. Mouse IgG was used as a negative control, and antibody 5D5 (a known agonist) was used as a positive control.
2×10^5 cells/ml of Caki-1 cells were introduced to a 96-well plate, and after 24 hours, each of 5 ug/ml of the antibodies was treated in serum free medium for 30 minutes. Lysis of the cells treated with the antibodies was performed and the degree of Akt phosphorylation was measured using a PathScan phospho-AKT1 (Ser473) chemiluminescent Sandwich ELISA kit (Cell Signaling, cat. no #7134S).
To compare agonism of the 3 types of antibodies having improved affinities, as prepared in Example 11, Caki-1 cells (Korean Cell Line Bank) were used to confirm the degree of Akt phosphorylation. Mouse IgG was used as a negative control, and a 5D5 antibody (a known agonist) was used as a positive control.
2×10^5 cells/ml of Caki-1 cells were introduced to a 96-well plate, and after 24 hours, each of 5 ug/ml of the antibodies was treated in serum free medium for 30 minutes. Lysis of the cells treated with antibodies was performed and a degree of Akt phosphorylation inhibition was measured using a PathScan phospho-AKT1 (Ser473) a chemiluminescent Sandwich ELISA kit (Cell Signaling, cat. no #7134S).

Series [4] concerns the target T1, c-Met. The experiment in a line: Biacore binding affinity to c-Met antigen. As to conditions: antibody immobilized on CM5 chip; 0.39 nM to 100 nM human c-Met. Here is the method: Affinities of the 4 types of antibodies against c-Met antigen prepared in Example 7 were measured by using a Biacore (GE healthcare). About 80 to 110 RU of each antibody was immobilized on a CM5 chip, 9 different concentrations ranging from 0.39 nM to 100 nM of human c-Met protein, as an antigen, were injected at a rate of 30 ul/min to obtain kon values and koff values as shown in Table 3. Then, KD values were calculated based thereon.
Background: Surface plasmon resonance follows binding to a sensor surface in real time, without labels.

Substitutions are numbered along the chain they refer to.

T1 sequence (P08581 25-1390): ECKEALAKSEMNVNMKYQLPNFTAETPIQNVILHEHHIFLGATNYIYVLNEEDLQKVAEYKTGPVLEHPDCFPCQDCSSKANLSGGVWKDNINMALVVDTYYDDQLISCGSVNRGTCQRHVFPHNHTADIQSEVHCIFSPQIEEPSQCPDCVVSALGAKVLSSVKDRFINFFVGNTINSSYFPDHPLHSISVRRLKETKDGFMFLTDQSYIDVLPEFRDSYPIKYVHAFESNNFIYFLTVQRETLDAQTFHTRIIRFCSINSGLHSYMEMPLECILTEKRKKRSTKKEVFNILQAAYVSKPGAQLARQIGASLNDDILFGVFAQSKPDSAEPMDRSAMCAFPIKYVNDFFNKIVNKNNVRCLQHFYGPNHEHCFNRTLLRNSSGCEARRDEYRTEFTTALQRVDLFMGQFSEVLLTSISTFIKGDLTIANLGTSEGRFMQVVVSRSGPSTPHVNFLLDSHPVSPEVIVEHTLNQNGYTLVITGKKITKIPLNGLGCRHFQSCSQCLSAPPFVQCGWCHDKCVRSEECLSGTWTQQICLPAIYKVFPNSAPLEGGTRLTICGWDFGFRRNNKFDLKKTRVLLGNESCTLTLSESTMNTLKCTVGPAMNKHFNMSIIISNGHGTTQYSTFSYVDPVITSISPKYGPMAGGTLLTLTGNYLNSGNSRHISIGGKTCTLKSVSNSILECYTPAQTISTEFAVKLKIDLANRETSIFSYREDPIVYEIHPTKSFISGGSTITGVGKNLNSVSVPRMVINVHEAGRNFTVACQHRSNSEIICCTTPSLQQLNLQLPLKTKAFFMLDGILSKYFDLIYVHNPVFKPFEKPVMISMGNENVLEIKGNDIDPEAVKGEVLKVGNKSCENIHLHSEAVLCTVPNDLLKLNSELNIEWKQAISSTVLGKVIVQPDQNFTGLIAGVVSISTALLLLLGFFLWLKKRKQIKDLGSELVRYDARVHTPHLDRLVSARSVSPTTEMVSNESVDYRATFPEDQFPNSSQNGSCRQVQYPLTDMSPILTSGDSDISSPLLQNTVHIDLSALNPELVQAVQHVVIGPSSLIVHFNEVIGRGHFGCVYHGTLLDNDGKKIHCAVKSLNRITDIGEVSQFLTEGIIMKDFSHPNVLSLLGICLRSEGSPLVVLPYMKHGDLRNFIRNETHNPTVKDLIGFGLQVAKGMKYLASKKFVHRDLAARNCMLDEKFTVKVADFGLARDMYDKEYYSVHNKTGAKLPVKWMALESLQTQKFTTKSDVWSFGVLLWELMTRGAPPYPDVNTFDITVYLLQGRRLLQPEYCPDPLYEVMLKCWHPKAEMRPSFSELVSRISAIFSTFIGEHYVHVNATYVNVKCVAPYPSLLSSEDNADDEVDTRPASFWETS

B1: huAbF46-H4-A1: affinity-matured huAbF46 IgG with L3-1-derived CDR-L3 (SEQ ID NO: 13), U6-HC7 hinge (antibody)
heavy: EVQLVESGGGLVQPGGSLRLSCAASGFTFTDYYMSWVRQAPGKGLEWLGFIRNKANGYTTEYSASVKGRFTISRDNSKNTLYLQMNSLRAEDTAVYYCARDNWFAYWGQGTLVTVSSASTKGPSVFPLAPSSKSTSGGTAALGCLVKDYFPEPVTVSWNSGALTSGVHTFPAVLQSSGLYSLSSVVTVPSSSLGTQTYICNVNHKPSNTKVDKKVEPKSCDCH[sequence of human IgG1 Fc omitted]
light: DIQMTQSPSSLSASVGDRVTITCKSSQSLLASGNQNNYLAWHQQKPGKAPKMLIIWASTRVSGVPSRFSGSGSGTDFTLTISSLQPEDFATYYCQQSYSRPYTFGQGTKVEIKRTVAAPSVFIFPPSDEQLKSGTASVVCLLNNFYPREAKVQWKVDNALQSGNSQESVTEQDSKDSTYSLSSTLTLSKADYEKHKVYACEVTHQGLSSPVTKSFNRGEC
As to B1, in the series with U87MG brain cancer cells, the “tumor growth inhibiting effect” value was “dose-dependent tumor growth inhibiting effects”. Also, in series [1], the relative cell viability was determined as 74%. The “increase of degree of degradation of c-Met compared to huAbF46” value (from here on “increase”) in the series with c-Met [2] is on record as “about 37%”. The “tumor growth inhibiting effect” value in series [3] is recorded as “dose-dependent tumor growth inhibiting effects”. For the same molecule, in the series with Akt, the “degree of Akt phosphorylation as share of that of huAbF46” value is “about 49%” and the “degree of Akt phosphorylation” value is on record as 15.27%.

B2: huAbF46-H4-A3: affinity-matured huAbF46 IgG with L3-3-derived CDR-L3 (SEQ ID NO: 15), U6-HC7 hinge (antibody)
heavy: B1 heavy
light: B1 light with Q95A, R100H, Y102F, T103S
In the series with c-Met [4], B2 yielded an off-rate constant (koff) of 0.000143 s⁻¹ and a kon of 419000 M⁻¹ s⁻¹. Moreover, in series [1], the relative cell viability is 66%. In addition, the “increase” value in the series with c-Met [2] is “about 28%”.

B3: huAbF46-H4-A2: affinity-matured huAbF46 IgG with L3-2-derived CDR-L3 (SEQ ID NO: 14), U6-HC7 hinge (antibody)
heavy: B1 heavy
light: B1 light with Q95G, Y102L
In the series with c-Met [4], B3 returned a koff of 0.000253 s⁻¹ and an on-rate constant (kon) of 502000 M⁻¹ s⁻¹. Also, the relative cell viability in series [1] is 73%. Further, the “increase” value in the series with c-Met [2] is recorded as “about 28%”. Besides, in the series with Akt, the “degree of Akt phosphorylation as share of that of huAbF46” value is listed as “about 49%” and the “degree of Akt phosphorylation” value stood at 15.71%.

B4: huAbF46-H4-A5: affinity-matured huAbF46 IgG with L3-5-derived CDR-L3 (SEQ ID NO: 16), U6-HC7 hinge (antibody)
heavy: B1 heavy
light: B1 light with Y102F
In the series with c-Met [4], B4 had a koff of 0.00024 s⁻¹ and a kon of 572000 M⁻¹ s⁻¹. Moreover, the relative cell viability in series [1] is listed as 72%. The “increase” value in the series with c-Met [2] is given as “about 28%”.

By koff is commonly meant the rate constant with which the complex falls apart. A higher koff goes with a short-lived complex. A word on the kon: it is a measure of how fast the partners come together.
